Measurements published in the supplement of paper PMC3334620.
The full ranking holds about 33,000 sequences; the median of “E-score (-0.5 to 0.5)” is about -0.016, and the highest 2% start at about 0.32. The list shows a part of the results.

Target: T1, Stp1 (UniProt B3LFK1)
T1 sequence: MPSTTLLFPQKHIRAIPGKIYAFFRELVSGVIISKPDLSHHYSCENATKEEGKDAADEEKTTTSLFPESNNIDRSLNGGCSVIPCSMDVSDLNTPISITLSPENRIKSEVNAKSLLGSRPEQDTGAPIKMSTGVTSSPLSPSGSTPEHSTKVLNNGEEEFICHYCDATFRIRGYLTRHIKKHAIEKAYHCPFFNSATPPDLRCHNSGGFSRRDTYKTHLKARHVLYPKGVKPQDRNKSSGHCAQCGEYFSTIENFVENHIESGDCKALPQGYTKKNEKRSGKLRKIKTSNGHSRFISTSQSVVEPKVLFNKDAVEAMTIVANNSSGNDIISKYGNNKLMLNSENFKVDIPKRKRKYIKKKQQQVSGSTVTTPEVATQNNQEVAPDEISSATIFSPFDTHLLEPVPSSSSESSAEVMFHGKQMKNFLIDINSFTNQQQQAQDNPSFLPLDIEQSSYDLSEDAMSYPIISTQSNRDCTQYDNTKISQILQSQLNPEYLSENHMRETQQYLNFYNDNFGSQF
Experiment: PBM E-score (8-mer binding enrichment) (E-score (-0.5 to 0.5)); higher = stronger / more preferred TF binding; most listed sequences are background and not binding sites
Details: protein concentration: 200 nM; construct: GST-full length
In short: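 The E-score, a modified Wilcoxon-Mann-Whitney statistic, was computed by the Universal PBM Analysis Suite for every ungapped eight-base word pooled with its reverse complement. Scans behind it were normalised with masliner after bound GST-tagged yeast transcription factors were detected with fluorescent anti-GST. The proteins, at about 100-200 nM, had been applied to universal all-10-mer Agilent arrays made double-stranded by primer extension.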

Sequence | PBM E-score
GACGTTCC | -0.166
AGTAGACT | -0.156
AACACCTT | 0.0156
TAGCCACA | 0.0256
TCTTCCAA | -0.132
GACGAGGC | 0.312
ACATTCTC | 0.115
ACCCAGAC | -0.156
CCTGTGAG | 0.00192
GAACCGGC | -0.0191
CCTTATCA | 0.111
ACACCGCG | 0.0308
CACAGATG | -0.0326
GGTACACA | -0.0198
CTAGGTTC | -0.217
CGTGCGGA | 0.3
AATCCGTG | 0.219
CAGGAGAA | -0.00625
CGGCGGCC | 0.214
TACTAACA | 0.0927
CATTGTGC | 0.148
CAGGGCAG | -0.114
AGTATTCG | 0.0476
CTTATTAA | 0.167
CAAAGTTC | -0.154

Sequence | PBM E-score
AATCGGCT | 0.228
GCCCATCC | -0.0259
ACTCAATC | -0.0413
TAGTTAGA | 0.0365
AGTTGCAC | -0.0978
ATGTTAGC | -0.015
AGGTCCCC | -0.13
AGTCGTGC | -0.085
CAGGTGCG | -0.0411
ACTGGCTC | -0.267
AATCAACG | 0.107
CCATGAAC | -0.0517
AGAACGGC | 0.387
TATGGACA | 0.0788
ACGTTCGC | -0.134
CACTTCGA | 0.151
CTACAGGC | -0.136
ATAGCGTC | -0.14
GCCACGCC | 0.267
GTCGAAAC | -0.0355
ATGAACGC | 0.116
GGTTGTAC | -0.0855
CAAAAATA | 0.251
CCACATCC | -0.0172
CAGACTGG | -0.183

Sequence | PBM E-score
CTATCCGA | -0.0258
GCCTAGAA | -0.112
TCCTATAA | -0.00959
CAATAATG | 0.0123
GAAGACAA | 0.171
TGAAGAAA | 0.168
GATTCAGC | -0.0357
GCGAGGGA | -0.178
ACATTTCC | 0.0308
CCAAATCC | -0.187
ACATGTTG | 0.118
CGAGCTCC | -0.0738
GCATGAGA | 0.151
ACATTGAC | -0.03
CCAACTCA | -0.0311
GTTCCTAA | 0.0398
ACTACTGC | -0.226
CCTCACAC | -0.142
CAAAGGTA | -0.0205
TGTTCCAA | 0.0126
GGCACAAC | 0.255
ACTTTGGC | -0.0956
ACTATCGA | -0.16
ATAAAACG | 0.223
GCGTAAAC | 0.261

Sequence | PBM E-score
GAACCGTA | 0.0246
CCGCAGCG | 0.0818
CTCGCTGA | -0.0828
CAAACGGG | 0.175
AGGGGTGA | -0.353
AATGTCCC | -0.227
AGACCGGC | -0.0186
AAGCTGGC | -0.111
CAGGGAAA | -0.0756
GCATTTCA | 0.0927
AATCCGAA | -0.0725
ATCCGTGG | -0.00618
GATATGGA | 0.168
AGGTTCGG | -0.184
ATACATTA | 0.133
AGGCGACA | 0.197
AGAACCGA | -0.0518
GCGACCAC | 0.0191
AGTATACC | -0.0617
GACTAGTC | -0.32
CTGCCCTC | -0.245
CAGAACCC | -0.0622
GTACCCAA | -0.0615
CACATCTA | 0.198
CCCAGTGC | -0.0486

Sequence | PBM E-score
GATCGAAC | 0.0147
GCGGTTAC | 0.0829
CAAGTTTA | 0.046
ACGAATTG | 0.0345
AAGCTCTG | -0.238
GTTTAGTA | 0.0839
CTAAGCAA | -0.0266
AGCTCTCA | -0.168
CGAACGAA | 0.0262
GAGCTTCA | -0.0352
AGTTTCTG | 0.128
GTTTTGCA | 0.0738
AATCTCTC | 0.0375
ACGTACCA | 0.0308
CGGATTCA | -0.132
GCATCGGA | 0.114
GGCCTTGA | -0.221
TCTTTCAA | -0.145
CTTTGACC | -0.0226
AACAGCAC | 0.205
AATCCGAG | 0.0181
AGGAATGC | 0.015
GCTGAGGA | -0.24
ACGGTTAG | -0.349
TAACAGCA | 0.174

Sequence | PBM E-score
ATACATAC | -0.0362
ACCCTAGC | -0.288
ATAGCAGC | -0.187
AAATAAGT | 0.107
AGTCTTTG | -0.011
GTAGTGGA | 0.0346
CCCTCCTC | -0.364
ACCACTCG | 0.17
ATTTGCCC | 0.109
ACTGGTAC | -0.0761
CTCATTTC | 0.0453
ATATGTGC | 0.193
CGTGAACA | 0.121
AATTAGGC | 0.146
ATACCGAG | -0.0782
CGTCATGA | -0.0466
GGCCGTAC | 0.424
CATAGAGG | -0.0241
AGCATTAT | 0.0803
GCGGGTAA | -0.0218
ACGAGGTC | -0.144
ACCCGAAA | -0.149
GGGTATTA | -0.148
ATATATTC | 0.226
ACAAACAA | 0.0634

Sequence | PBM E-score
CTGCATCC | 0.0297
CCTTTCTC | -0.144
CGTACCGA | 0.00804
CAGTCATC | -0.254
CCACCTGC | -0.021
ATAGTCTA | -0.243
TCCGTCCA | -0.122
CGTAATAG | 0.0375
TAGGTCAA | -0.0431
GTCCTTAA | -0.0475
AATCCGGC | -0.171
CCCCCATC | -0.243
CCTAATTA | -0.0644
CAGCCACG | 0.12
ACAAGGCA | 0.315
GTACACAC | 0.0557
ACTACCTG | -0.0517
GAGTGGCA | 0.166
AGTCTCAA | -0.219
ACTACCAC | -0.139
CCTGAGCA | -0.0592
AGAAATCC | 0.0493
